# The campaign covered roughly 150,000 compounds. About 540 (0.36%) showed an effect of 50% or more. This is one part of the list.
# Test system: Plasmodium falciparum
# Assay: Primary screen in NF54 nanoGlo assay, in single point, at 2uM, 72h; a lower Z score goes with more inhibition
# Assay type: functional, Erythrocyte
# Conditions: timepoint 72 hour
Structure (SMILES),% Inhibition,Z score
Cc1cccc(CN2CCC(=O)N(CC3CCCCC3)CC2)n1,-8%,1.13
c1ccc(CN2CCC(NC3CC4CCC3C4)CC2)cc1 (stereo not given),1%,-0.2
C=C(C)CN1C[C@@H](O)Cc2ccccc21,-8%,0.67
CN(Cc1cnc2ccccc2c1)c1cnn(C)c1,1%,-0.16
COC(=O)[C@H](C)N1CCC(C(F)(F)F)CC1,-10%,0.96
C[C@@H](CN)CNC(=O)Cc1ccc(Cl)cc1Br,-12%,1.64
Cc1nnc(CN(Cc2nnnn2C2CC2)C(C)(C)C)o1,7%,-1.17
O=C(CN1C(c2ccc(Cl)cc2)=C[C@@H](c2ccccc2)n2nnnc21)N1CCN(c2ccccc2)CC1,-3%,0.32
CCO[C@H]1CN(Cc2nc(-c3ccccc3)cs2)C[C@@H]1O,-14%,2.64
CC1CCC(N(C)Cc2nnnn2C(C)C)CC1 (stereo not given),-1%,0.08
C[C@@H](CNC(=O)Nc1nc(CS(C)(=O)=O)no1)c1ccc(F)cc1F,-2%,0.45
Cc1nnc(-c2cc(NC(=O)Cc3c[nH]c4ccccc34)c(C)s2)o1,-13%,1.26
CCc1ccc(NC(=O)N2CCC[C@H](OC3CCC3)C2)cc1OC,6%,-0.56
O=C(NCc1cccs1)C1CCCC1,-3%,0.29
O=C(Cn1nc2c3ccc(F)cc3ncn2c1=O)Nc1ccc(F)c(Cl)c1,-2%,0.35
CCOc1ccc([C@H](C)NS(=O)(=O)c2ccc(-c3nc(CC)cs3)s2)cc1,-1%,0.11
OCCn1ccc([C@H]2CCCN(Cc3ccc4c(c3)OCCO4)C2)n1,-19%,1.71
Cc1nc(CN2CCN(C)C(=O)[C@@H]2C)n(C)c1C,-15%,1.74
O=C(c1cc(C(F)(F)F)n[nH]1)N1CC[C@H](c2ccc(F)cc2)[C@@H](O)C1,-7%,0.92
CC(C)(C)N(CC(=O)N1CCn2cccc2[C@@H]1c1ccoc1)C(=O)c1ccccc1Cl,-11%,1.53
CN1C(=O)CO[C@H](c2nc(-c3ccco3)no2)[C@H]1c1cccnc1,-7%,1
O=C(O)c1ccc2c(c1)n(CCN1CCCCC1)c(=O)n2CCc1ccccc1,5%,-0.74

Structure (SMILES),% Inhibition,Z score
CCN(C(=O)Nc1cc(OC)ccc1OC)[C@@H](C)CS(C)(=O)=O,-1%,0.09
Cc1nn(C(C)(C)C)cc1C(C)NC(=O)N1CCCC(O)C1 (stereo not given),0%,0
O=C(NCCN1CC[C@H](N2CCOCC2)C1=O)c1ccoc1,-1%,0.16
CCCn1cc(C(=O)N2CC[C@H](CC(=O)NC)C2)c(C)n1,-3%,0.55
CC1(C)[C@H]2CC=C(CCNc3nc(-c4ccncc4)nc4c3CNC4)[C@@H]1C2,0%,-0.03
N#C[C@@H](N)c1cccc(Br)c1,-2%,0.23
COc1ccnc(CN2CC3(CCCCC3)CC2=O)c1OC,-6%,0.76
CC[C@@H](C(=O)N(CCO)Cc1nccn1C)n1cccn1,1%,-0.18
c1ccc(Nc2ncc(Cc3cccc4ccccc34)s2)nc1,-8%,1.11
COc1ccc(C(=O)NC[C@@]2(COc3cccnc3)C[C@@H](O)[C@@H](O)C2)cc1,24%,-2.82
Cc1n[nH]c([C@H]2CCN(Cc3ccccc3C#N)C[C@H]2N(C)C)n1,-5%,0.64
Cc1ccc(C2=Nc3ccccc3C(c3ccc(C)cc3)=Nc3ccccc32)cc1,-5%,0.5
O=C(NS(=O)(=O)CCCF)c1cnc([C@@H]2CCCO2)s1,0%,-0.04
COC[C@](C)(CNC(=O)c1ccc(Br)o1)OC,-15%,2.94
CC1CCC(Oc2cc(CNS(=O)(=O)c3cnn(C)c3)ccn2)CC1 (stereo not given),-6%,0.6
Cc1cc(S(=O)(=O)N2CC(Oc3cc(C)n(C4CC4)c(=O)c3)C2)ccc1F,-1%,0.13
COC(=O)CCc1cncc(NC(=O)[C@@]2(N)COc3ccccc3C2)c1,-10%,1.09
Cn1ccc(NC(=O)N(CC(C)(C)O)C2CC2)n1,-20%,1.99
COc1ncc(CN2CCC(C(=O)O)(n3ccc(C(C)C)n3)CC2)cn1,-7%,0.67
CCc1cc(N2CCC[C@H]2c2noc(C)n2)ncn1,-6%,0.53
CCNC(=O)C[C@H]1COCCN1S(=O)(=O)c1cccc2nsnc12,-4%,0.57
CC(=O)N1CC[C@@]2(CO)CN(Cc3ccc(OC(F)(F)F)cc3)C[C@H]2C1,-12%,1.36

Structure (SMILES),% Inhibition,Z score
Cc1ncc(C(=O)N2CCCC[C@@H]2CCc2cccs2)s1,-5%,0.83
CN(CCNC(=O)c1ccncc1F)C(=O)c1ccncc1F,-4%,0.61
COC[C@@H](C(N)=O)N(C)C(=O)c1cc2c(C)cccn2c1,4%,-0.77
COc1cc(N2CCC3(CCC(=O)N(CCc4ccccc4)C3)CC2)ncn1,-3%,0.53
CCN1CCN(C2(C(=O)N(C)Cc3nc(C)cs3)Cc3ccccc3C2)CC1,-7%,1.05
O=C(CCc1nnc(C2CCCC2)o1)NCC1CC1c1ccccc1 (stereo not given),2%,-0.3
O=C(c1csc2cccc(Cl)c12)N1CCn2c(nnc2C(F)(F)F)C1,-10%,1.35
Cc1n[nH]c2ncc(NC(=O)C3CCOCC3)cc12,-6%,0.64
CCOC[C@H](C)OC(=O)c1cnn(C)c1,12%,-2.15
Cc1ccc(F)c(N2CCC(NC(=O)C3(O)CCCC3)CC2)c1,-11%,1.26
C[C@H](NC(=O)c1cccc(C(F)(F)F)c1)c1nnc(N)s1,-8%,0.79
Cc1ccc([C@@H]2c3[nH]c4ccccc4c3CCN2S(=O)(=O)c2cnn(C(F)F)c2C)cc1,-6%,0.67
c1cn2cnnc2c(N2CCC3(CCCCC3)C2)n1,10%,-1.18
Cc1nc(CN(Cc2cc3c(cc2Cl)OCO3)C(C)C)no1,-1%,0.2
O=C(CN1CCN(c2cccc(Cl)c2)C1=O)N1CC[C@H](Oc2ncc(Cl)cn2)C1,-7%,1.08
COC1CC(NS(=O)(=O)c2ccc(Cl)s2)C1(C)C (stereo not given),-12%,2.27
Cc1cc(C)c2nc(C)c(CN(C)C3CCCCC3)c(O)c2c1,-5%,0.85
O=C(c1ccc(-c2ccc3c(c2)OC(F)(F)O3)cc1)N(CCO)CCO,2%,-0.47
c1ccc(-n2nnnc2N2CCCCCCC2)cc1,-13%,1.28
COc1ccccc1C1(c2ccccc2OC)c2ccccc2Nc2ccccc21,12%,-2.35
Cc1nccn1Cc1nnc(C2CCN(c3cc(C#N)ccn3)CC2)n1C,-10%,1.31
CC1=NS(=O)(=O)N(C)C=C1C(=O)OCc1ccc(N2CCCC2=O)cc1,-12%,1.67

Structure (SMILES),% Inhibition,Z score
C[C@H]1CNC(=O)CCN1S(=O)(=O)c1cccc(C(=O)NCCF)c1,8%,-1.1
C=CCNC(=O)C1Cc2ccccc2N2CCN(CC(=O)N3CCCC3)CC12 (stereo not given),3%,-0.35
CCC(C(=O)Nc1ccc2c(c1)CN(CCc1ccc(OC)c(OC)c1)C(=O)C(C)O2)c1ccccc1 (stereo not given),91%,-17.08
Cc1nc(CNC(=O)c2ccc(OC(C)(C)C)cn2)ccc1[C@H](C)O,-6%,0.78
CN(c1nnc(-c2ccon2)s1)[C@H]1CCCN(Cc2ccccc2)C1,-33%,3.88
CCn1ccc(C(=O)Nc2c[nH]nn2)n1,-15%,2.76
CN(Cc1nc2ccccc2s1)[C@H]1CCOC2(CCOCC2)C1,-11%,2.11
Cn1c(CCn2ccnc2-c2cnc(N3CCCC3)s2)n[nH]c1=O,-20%,2.59
CCCn1ncc(CN2CCN(C)[C@]3(CCC(=O)N(CC4CC4)CC3)C2)c1C,-2%,0.41
CN1CCC(n2cnc(-c3ccccc3)c2-c2cccc(Cl)c2)CC1,-5%,0.73
Cc1nn2cc(CCCO)cnc2c1C,-3%,0.46
CCn1nc(C)c(C(=O)Nc2nc(CC3CC3)ns2)n1,-11%,1.07
COCCNC(=O)[C@@H]1COC2(CCN(C(=O)c3ccc4c(c3)OCO4)CC2)N1C(=O)c1ccc(C)cc1,-6%,1.14
COC[C@H]1COCCN1C(=O)Nc1ccncc1OC(C)C,-17%,2.73
O=C(COc1ccccc1)N[C@H]1CCCNC1=O,2%,-0.34
Cc1ccc(CN2C(=O)N[C@]3(CCN(C(=O)c4ccc(Cl)cc4)C3)C2=O)cc1,-6%,0.72
O=C(Nc1cccc(F)c1)[C@]1(O)CCOC1,-15%,1.76
CCc1nc(Cn2cc(C(C)=O)c(=O)n(C)c2=O)cs1,0%,-0.03
CCN(C(=O)CCC(=O)N1CCC(Cc2nncn2CC2CC2)CC1)c1ccccc1,-5%,0.63

# Source: ChEMBL document CHEMBL4888484, “Replenishing the malaria drug discovery pipeline: Screening and hit evaluation of the MMV Hit Generation Library 1 (HGL1) against asexual blood stage Plasmodium falciparum ,using a nano luciferase reporter read-out” (2022)
